Hit rate of the full screen: of about 310,000 compounds, about 2,200 (0.71%) showed an effect of 50% or more. Effects have a minus sign here. The list shows a part of the results.
molecular target: human ether-à-go-go-related gene (hERG) potassium channel (human, UniProt Q12809); test: primary screen, population patch clamp on CHO cells stably expressing hERG
Sequence (Q12809 whole entry, looked up): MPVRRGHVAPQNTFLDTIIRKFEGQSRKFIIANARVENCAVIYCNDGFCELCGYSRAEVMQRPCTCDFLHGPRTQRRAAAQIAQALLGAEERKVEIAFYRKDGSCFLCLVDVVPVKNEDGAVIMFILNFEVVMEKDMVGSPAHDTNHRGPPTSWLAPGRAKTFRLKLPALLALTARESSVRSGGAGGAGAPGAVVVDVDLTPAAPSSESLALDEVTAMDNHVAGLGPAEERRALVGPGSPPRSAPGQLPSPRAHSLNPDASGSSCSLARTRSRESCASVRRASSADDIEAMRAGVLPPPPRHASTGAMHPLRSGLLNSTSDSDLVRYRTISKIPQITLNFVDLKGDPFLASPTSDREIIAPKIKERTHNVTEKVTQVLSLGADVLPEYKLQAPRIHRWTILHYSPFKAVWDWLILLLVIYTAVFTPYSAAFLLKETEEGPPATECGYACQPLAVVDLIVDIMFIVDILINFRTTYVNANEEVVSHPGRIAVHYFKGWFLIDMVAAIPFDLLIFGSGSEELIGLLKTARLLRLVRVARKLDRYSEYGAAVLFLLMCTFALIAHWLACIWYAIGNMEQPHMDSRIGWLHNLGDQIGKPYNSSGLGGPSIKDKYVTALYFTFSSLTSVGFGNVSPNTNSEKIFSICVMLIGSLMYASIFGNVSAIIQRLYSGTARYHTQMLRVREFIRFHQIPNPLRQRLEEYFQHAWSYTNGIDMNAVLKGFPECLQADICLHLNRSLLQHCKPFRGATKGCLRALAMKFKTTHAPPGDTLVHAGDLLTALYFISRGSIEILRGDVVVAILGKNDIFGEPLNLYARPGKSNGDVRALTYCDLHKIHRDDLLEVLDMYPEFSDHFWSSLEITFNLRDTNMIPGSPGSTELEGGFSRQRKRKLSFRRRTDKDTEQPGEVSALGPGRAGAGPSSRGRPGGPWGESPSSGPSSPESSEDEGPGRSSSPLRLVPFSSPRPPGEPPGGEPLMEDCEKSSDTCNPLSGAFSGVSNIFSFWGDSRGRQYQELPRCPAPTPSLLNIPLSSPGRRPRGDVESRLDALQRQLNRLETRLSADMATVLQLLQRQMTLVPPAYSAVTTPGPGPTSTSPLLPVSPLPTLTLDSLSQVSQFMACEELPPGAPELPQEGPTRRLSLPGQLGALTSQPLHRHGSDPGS

Structure (SMILES)	hERG current change (%, negative = inhibition) at 1uM [%]
COc1ccc(Cl)cc1C(=O)NNC(=O)c1nc2nc(C)cc(C)n2n1	8.9
O=C(CCS(=O)(=O)c1ccc(Cl)cc1)NCCN1C(=O)S/C(=C\c2ccccc2F)C1=O	15.6
CC(C)C(=O)Nc1cccc(C(=O)Nc2ccccc2C(=O)O)c1	5.46
COc1ccc(CCNC(=O)CSCc2ccc([N+](=O)[O-])cc2)cc1	-7.02
CCN(CC(=O)c1c(N)n(C)c(=O)n(C)c1=O)c1cccc2ccccc12	13.7
O=C(Nc1ccc(F)cc1F)C1CCCN1S(=O)(=O)c1cccc2nsnc12 (centres unmarked)	2.28
Cn1cccc1Cc1nnc(SCC(=O)Nc2ccccc2F)n1CCc1ccccc1	-2.37
O=C(Nc1ccc(Cl)c(Cl)c1)Nc1ccon1	14.1
CCOc1cc(-c2nnn(CC(=O)N3CCCCC3)n2)ccc1OC	14.3
CCCS(=O)(=O)N1CCCC(C(=O)NCCN2CCCCC2C)C1 (centres unmarked)	11.9
CCOC(=O)c1sc(=S)n(CC)c1NC(=O)c1ccccc1	15.7
CC(C)COC(=O)Nc1ccccc1C(=O)N1CCOCC1	11.7
COc1ccccc1OCC(=O)n1cc(C(=O)c2cc(Cl)cc(Cl)c2O)cn1	11.1
CC(C)n1c(SCC(=O)N2CCCC2)nc2c1c(=O)n(C)c(=O)n2C	4.31
CC1=NN(C(=O)CCc2ccccc2)C(c2ccccc2)C1 (centres unmarked)	8.42
CCCNC(=O)N1CCN(S(C)(=O)=O)CC1	14.5
CN(C)C(=O)Nc1ccccc1	18.6
CCC(C)NC(=O)C(NS(=O)(=O)c1cccc2nsnc12)c1ccccc1 (centres unmarked)	8.9
Cc1cc(C)cc(COn2ccnc2)c1	2.71
COc1cc2ccccc2cc1C(=O)Nc1ccncc1	-17.9
CCOC(=O)c1sc(NC(=O)CSc2nnc(Cc3ccccc3)o2)c(C(=O)OCC)c1C	16.9
CCNC(=O)N1CCNC(=O)C1CC(=O)Nc1ccc(C(=O)OCC)cc1 (centres unmarked)	4.95
C=CCc1cccc(OC)c1OCCOCCNCCO.O=C(O)C(=O)O	11.1

Structure (SMILES)	hERG current change (%, negative = inhibition) at 1uM [%]
O=C(N/N=C/c1ccc(N2CCOCC2)o1)c1ccccc1[N+](=O)[O-]	12.8
CC1(C)CC(NC(=O)c2cccc([N+](=O)[O-])c2)CC(C)(C)N1	7.13
CC1(C)CN(S(=O)(=O)OCC(Cl)(Cl)Cl)C(=O)N1	5.16
CC(C)(C)c1ccc(OC(=O)c2ccc(-n3cncn3)nc2)cc1	10.9
O=C(CN(Cc1ccc(Br)cc1)S(=O)(=O)c1ccccc1)NCc1ccncc1	-33.3
Cc1cc(C(=O)Nc2ccccc2[N+](=O)[O-])cs1	-14.8
CNC(=O)c1sc(-c2ccccc2)nc1C	5.9
COc1ccc(NC(=S)N(Cc2ccc(C(=O)O)cc2)Cc2ccc(OC)c(OC)c2)cc1	22.5
CC(C)(C)OC(=O)NCCc1nnc(SCC(=O)c2ccc(Cl)cc2)o1	13.2
O=C(Nc1ccc(C(=O)Oc2ccccc2)c(O)c1)c1ccccc1	2.1
Cc1cc(F)ccc1N1CCC(N2CCN(CCC(C)C)C(CCO)C2)CC1 (centres unmarked)	-29.7
O=C1C2ON(c3ccccc3)C(c3cccnc3)C2C(=O)N1c1ccccc1 (centres unmarked)	10.6
CC(=O)N(Cc1cccc(Br)c1)c1ccc(N2CCOCC2)c(Cl)c1	11
CC(C)Nc1nc(-c2cccnc2)nc(-c2ccccc2)c1C#N	0.157
CCc1ccc(OCC(=O)NCCN(C)C)c(Br)c1	-24.2
CN(Cc1cccc(F)c1)C(=O)Cc1ccc(S(=O)(=O)N2CCOCC2)s1	-5.45
CC(=O)c1ccccc1NC(=O)COC(=O)c1cc2ccccc2[nH]1	12.4
COc1ccc(CNC(=O)C2CC(c3ccc(F)cc3)=NO2)cc1 (centres unmarked)	-4.75
Cn1c(N)c(C(=O)COC(=O)CCc2c[nH]c3ccccc23)c(=O)n(C)c1=O	11.1
O=C(Cn1nc(Cc2cccnc2)c2ccccc2c1=O)Nc1ccc2c(c1)OCO2	11.6
COc1ccc(NC(=O)c2cnc(SC)n2-c2ccc(F)cc2)c(OC)c1	12
Cc1cc([N+](=O)[O-])nn1CC(=O)Nc1ccc(F)cc1	10.8
CC1=C(C(=O)Nc2ccccc2C(F)(F)F)C(c2ccc(C)s2)NC(=S)N1 (centres unmarked)	10.1

Structure (SMILES)	hERG current change (%, negative = inhibition) at 1uM [%]
Cc1ccc(NC(=O)C(=O)Nc2ccc(C)cn2)nc1	3.92
Cl.NC1=NC(c2ccccc2C(F)(F)F)N(c2ccc(F)c(Cl)c2)C(N)=N1 (centres unmarked)	14.7
COc1ccccc1NC(=O)C1CCCCC1	3.37
CCN1C(=O)C2CCCCN2c2ccc(C(=O)NCCOC)cc21 (centres unmarked)	16.5
O=C(CSCc1c(F)cccc1Cl)Nc1ccccc1C(=O)N1CCOCC1	0.65
O=[N+]([O-])c1ccc(N/N=C/c2c[nH]c3ccccc23)c(S(=O)(=O)Nc2ccc(Cl)cc2)c1	10.7
CCc1ccc(C(=O)COC(=O)c2ccc(-c3nnc(-c4ccccc4)o3)cc2)cc1	7.51
CCN(CC)CCCN(Cc1cc2cc3c(cc2[nH]c1=O)OCO3)C(=S)NCc1ccco1	-7.8
O=C(Cc1nnc(NC(=O)Nc2ccccc2F)s1)NCc1ccccc1	2.14
CCOc1ccccc1NC(=S)N1CCC(NC(=O)c2ccco2)CC1	6.6
Cc1ccc(C)c(Oc2coc3cc(OCC(=O)Nc4ccccc4C(C)C)ccc3c2=O)c1	10.4
CC(C)NCC(O)c1cc(O)cc(O)c1.O=S(=O)(O)O (centres unmarked)	16.8
O=C(NCc1ccccn1)c1cc2ccccc2oc1=O	11.8
COc1cc2cncc(Cc3ccc(Cl)cc3)c2cc1OC.CS(=O)(=O)O	2.88
O=C(Nc1c(Cl)cccc1Cl)C1CCC1	13.8
COc1ccc(NC(=O)COC(=O)COc2cccc3c2OC(C)(C)C3)cc1	14.9
O=C(CN1CCCCC1)Nc1ccc(Br)cc1[N+](=O)[O-]	12.9
CC(=O)NCCOc1c(C)cc(S(N)(=O)=O)cc1C	15.2
NC(=O)c1ccsc1NC(=O)COC(=O)c1ccccc1F	9.85
COc1ccc(N(C(=O)c2ccn[nH]2)C(C(=O)NC2CCCC2)c2ccc(F)cc2)cc1 (centres unmarked)	6.73
C/C(=N\NC(=O)c1ccccc1F)c1cccc(NC(=O)c2ccccc2)c1	1.71
CN1C2=C(C(=O)CC(C)(C)C2)C(c2cccs2)C2=C1CC(C)(C)CC2=O	9.37
Cc1ccc(N(Cc2cc(=O)[nH]c3ccccc23)C(=O)C(C)C)c(C)c1	2.37

Structure (SMILES)	hERG current change (%, negative = inhibition) at 1uM [%]
COc1cc(NC(=S)NCc2ccco2)cc(OC)c1	11.7
Cc1ccc(-n2ncc3c(=O)[nH]c(SCC(=O)N4CCN(c5ccccc5)CC4)nc32)cc1	7.21
CSCCC(C(=O)N1C[C@]2(C)C[C@H]1CC(C)(C)C2)N1C(=O)c2ccccc2C1=O (some centres unmarked)	8.43
COC(=O)COc1cccc(NC(=O)c2ccccc2)c1	9.52
O=C(CN1CCN(c2cccc(C(F)(F)F)c2)CC1)N(C1CC1)C1CCS(=O)(=O)C1 (centres unmarked)	-16.7
CN(C)c1nc2c(c(=O)[nH]c(=O)n2C)n1Cc1ccc(F)cc1	5.02
COC(=O)[C@H](Cc1ccccc1)NC(=O)NCc1ccccc1	3.86
CN1CC(C(=O)c2ccc(F)cc2)C(c2ccc(F)cc2)C1 (centres unmarked)	-4.82
COc1cccc(-c2nnn(CC(=O)N3CCCCC3)n2)c1	7.13
NC(=O)CC(NC(=O)c1ccc(Br)cc1)c1ccc(N2CCN(c3ccc(F)cc3)CC2)c([N+](=O)[O-])c1 (centres unmarked)	9.66
Cc1ccc(Nc2cnn(C34CC5CC(CC(CC(=O)O)(C5)C3)C4)c(=O)c2Cl)cc1	7.29
CC(=O)c1cccc(NC(=O)C(Sc2ncnc3ccccc23)c2ccccc2)c1 (centres unmarked)	10.2
O=C(c1cc2nc(-c3ccco3)cc(C(F)(F)F)n2n1)N1CCN(c2ccc(F)cc2)CC1	0.738
CCc1ccc(CN(C)Cc2nc(COc3ccccc3)no2)nc1	7
O=C1CN(C(=O)COC(=O)Cc2ccccc2)c2ccccc2N1	9.97
COc1ccc(/C=C/C(=O)Nc2ccc(C(N)=O)cc2)cc1OC	13.1
Cn1c(CNC(=O)CCNC(=O)c2ccc(F)c(F)c2)cc(=O)n(C)c1=O	15.4
COc1cccc(NC(=O)c2cc(OC)c(OC)c(OC)c2Br)c1	12.2
N#Cc1nc(-c2ccco2)oc1NCCCN1CCOCC1	1.69
CCN(Cc1ccccc1)C(=O)CN1C(=O)COc2ccc(S(=O)(=O)NC3CCCC3)cc21	-6.24

Source: PMC4336329 (PLoS ONE, 2015)
